# Source: the supplement of paper PMC8728848
# This is one part of the list.
# B1: Epa12 (Candida glabrata) (protein)
# chain: MGSSHHHHHHSSGLVPRGSHMLEPDNSLQIFDSFLSNPSKYPLGCSPKITNPKKGLSMELYSYPYRKKGSHPCWDPAYLDPNFPRVGYKKNKLIARVDGVSGDINFNFHPKRQCTPIADYLPPNFNYNEPITTTNFTMLLYGYFKPKVTGLHTFDISADDLLFMNFGAGNAFDCCRRDSTADTFGNYVAWAIWGRRIVRNKLTVRLDKGIYYPLRLFFNNRDYYGQMRLTFKTEHGSERITDFSDYFFSVDDTSEGCPGLITYESECADVKSSTVLETDYITIQAEKE
# How the values were obtained:
# Experiment in all cases: glycan array binding signal (z-score within array); higher = stronger binding
# Conditions in all cases: glycan notation: IUPAC condensed, linker removed
# [1] = biological target: GlcNAc(b1-3)Gal(b1-4)GlcNAc(b1-3)Gal(b1-4)GlcNAc
# Procedure, shortened: (§1)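 Glycan array data were curated from 3228 arrays in the Consortium for Functional Glycomics database and kept only where the protein sequence was available. Glycan names were converted to IUPAC-condensed notation, and columns mapping to the same glycan were averaged. The binding signal is a within-array Z-score, averaged across arrays of the same protein sequence at different concentrations or buffers and across linkers. Negative Z-scores can be read as non-binding.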
# [2] = biological target: GlcNAc(b1-3)Gal(b1-4)GlcNAc(b1-3)Gal(b1-4)GlcNAc(b1-2)Man(a1-3)[GlcNAc(b1-3)Gal(b1-4)GlcNAc(b1-3)Gal(b1-4)GlcNAc(b1-2)Man(a1-6)]Man(b1-4)GlcNAc(b1-4)GlcNAc
# Procedure, shortened: as §1
# [3] = biological target: GlcNAc(b1-3)Gal(b1-4)GlcNAc(b1-3)Gal(b1-4)GlcNAc(b1-2)Man(a1-3)[GlcNAc(b1-3)Gal(b1-4)GlcNAc(b1-3)Gal(b1-4)GlcNAc(b1-2)Man(a1-6)]Man(b1-4)GlcNAc(b1-4)[Fuc(a1-6)]GlcNAc
# Procedure, shortened: as §1
# [4] = biological target: GlcNAc(b1-3)Gal(b1-4)GlcNAc(b1-3)Gal(b1-4)GlcNAc(b1-2)[GlcNAc(b1-3)Gal(b1-4)GlcNAc(b1-3)Gal(b1-4)GlcNAc(b1-6)]Man(a1-6)[GlcNAc(b1-3)Gal(b1-4)GlcNAc(b1-3)Gal(b1-4)GlcNAc(b1-2)Man(a1-3)]Man(b1-4)GlcNAc(b1-4)[Fuc(a1-6)]GlcNAc
# Procedure, shortened: as §1
# [5] = biological target: GlcNAc(b1-3)Gal(b1-4)GlcNAc(b1-3)Gal(b1-4)GlcNAc(b1-3)Gal(b1-4)GlcNAc(b1-2)Man(a1-3)[GlcNAc(b1-3)Gal(b1-4)GlcNAc(b1-3)Gal(b1-4)GlcNAc(b1-3)Gal(b1-4)GlcNAc(b1-2)Man(a1-6)]Man(b1-4)GlcNAc(b1-4)GlcNAc
# Procedure, shortened: as §1
# [6] = biological target: GlcNAc(b1-3)Gal(b1-4)GlcNAc(b1-3)Gal(b1-4)GlcNAc(b1-3)Gal(b1-4)GlcNAc(b1-2)Man(a1-3)[GlcNAc(b1-3)Gal(b1-4)GlcNAc(b1-3)Gal(b1-4)GlcNAc(b1-3)Gal(b1-4)GlcNAc(b1-2)Man(a1-6)]Man(b1-4)GlcNAc(b1-4)[Fuc(a1-6)]GlcNAc
# Procedure, shortened: as §1
# [7] = biological target: GlcNAc(b1-3)Gal(b1-4)GlcNAc(b1-3)Gal(b1-4)GlcNAc(b1-3)Gal(b1-4)GlcNAc(b1-2)[GlcNAc(b1-3)Gal(b1-4)GlcNAc(b1-3)Gal(b1-4)GlcNAc(b1-3)Gal(b1-4)GlcNAc(b1-6)]Man(a1-6)[GlcNAc(b1-3)Gal(b1-4)GlcNAc(b1-3)Gal(b1-4)GlcNAc(b1-3)Gal(b1-4)GlcNAc(b1-2)Man(a1-3)]Man(b1-4)GlcNAc(b1-4)[Fuc(a1-6)]GlcNAc
# Procedure, shortened: as §1
# [8] = biological target: GlcNAc(b1-3)Gal(b1-4)GlcNAc(b1-3)Gal(b1-4)GlcNAc(b1-3)Gal(b1-4)GlcNAc(b1-3)Gal(b1-4)GlcNAc(b1-2)Man(a1-3)[GlcNAc(b1-3)Gal(b1-4)GlcNAc(b1-3)Gal(b1-4)GlcNAc(b1-3)Gal(b1-4)GlcNAc(b1-3)Gal(b1-4)GlcNAc(b1-2)Man(a1-6)]Man(b1-4)GlcNAc(b1-4)GlcNAc
# Procedure, shortened: as §1
# [9] = biological target: GlcNAc(b1-3)Gal(b1-4)GlcNAc(b1-3)Gal(b1-4)GlcNAc(b1-3)Gal(b1-4)GlcNAc(b1-3)Gal(b1-4)GlcNAc(b1-2)Man(a1-3)[GlcNAc(b1-3)Gal(b1-4)GlcNAc(b1-3)Gal(b1-4)GlcNAc(b1-3)Gal(b1-4)GlcNAc(b1-3)Gal(b1-4)GlcNAc(b1-2)Man(a1-6)]Man(b1-4)GlcNAc(b1-4)[Fuc(a1-6)]GlcNAc
# Procedure, shortened: as §1
# [10] = biological target: GlcNAc(b1-3)Gal(b1-4)GlcNAc(b1-3)Gal(b1-4)GlcNAc(b1-3)Gal(b1-4)GlcNAc(b1-3)Gal(b1-4)GlcNAc(b1-2)[GlcNAc(b1-3)Gal(b1-4)GlcNAc(b1-3)Gal(b1-4)GlcNAc(b1-3)Gal(b1-4)GlcNAc(b1-3)Gal(b1-4)GlcNAc(b1-6)]Man(a1-6)[GlcNAc(b1-3)Gal(b1-4)GlcNAc(b1-3)Gal(b1-4)GlcNAc(b1-3)Gal(b1-4)GlcNAc(b1-3)Gal(b1-4)GlcNAc(b1-2)Man(a1-3)]Man(b1-4)GlcNAc(b1-4)[Fuc(a1-6)]GlcNAc
# Procedure, shortened: as §1
# [11] = biological target: GlcNAc(b1-3)Gal(b1-4)GlcNAc(b1-3)Gal(b1-4)GlcNAc(b1-3)GalNAc
# Procedure, shortened: as §1
# [12] = biological target: GlcNAc(b1-3)Gal(b1-4)GlcNAc(b1-3)GalNAc
# Procedure, shortened: as §1
# [13] = biological target: GlcNAc(b1-3)Gal(b1-4)GlcNAc(b1-3)[GlcNAc(b1-3)Gal(b1-4)GlcNAc(b1-3)]GalNAc
# Procedure, shortened: as §1
# [14] = biological target: GlcNAc(b1-3)Gal(b1-4)GlcNAc(b1-6)[Gal(b1-3)]GalNAc
# Procedure, shortened: as §1
# [15] = biological target: GlcNAc(b1-3)Gal(b1-4)GlcNAc(b1-6)[GlcNAc(b1-3)Gal(b1-3)]GalNAc
# Procedure, shortened: as §1
# [16] = biological target: GlcNAc(b1-3)Gal(b1-4)GlcNAc(b1-6)[GlcNAc(b1-3)]Gal(b1-4)GlcNAc
# Procedure, shortened: as §1
# [17] = biological target: GlcNAc(b1-3)GalNAc
# Procedure, shortened: as §1
# [18] = biological target: GlcNAc(b1-3)Man
# Procedure, shortened: as §1
# [19] = biological target: GlcNAc(b1-3)[GlcNAc(b1-4)][GlcNAc(b1-6)]GlcNAc
# Procedure, shortened: as §1
# [20] = biological target: GlcNAc(b1-3)[GlcNAc(b1-6)]Gal(b1-4)GlcNAc
# Procedure, shortened: as §1
# [21] = biological target: GlcNAc(b1-3)[GlcNAc(b1-6)]GalNAc
# Procedure, shortened: as §1
# [22] = biological target: GlcNAc(b1-3)[GlcNAc(b1-6)]GlcNAc
# Procedure, shortened: as §1
# [23] = biological target: GlcNAc(b1-4)Gal(b1-4)GlcNAc
# Procedure, shortened: as §1
# [24] = biological target: GlcNAc(b1-4)GlcNAc
# Procedure, shortened: as §1
# [25] = biological target: GlcNAc(b1-4)GlcNAc(b1-4)GlcNAc
# Procedure, shortened: as §1
# [26] = biological target: GlcNAc(b1-4)GlcNAc(b1-4)GlcNAc(b1-4)GlcNAc(b1-4)GlcNAc
# Procedure, shortened: as §1
# [27] = biological target: GlcNAc(b1-4)GlcNAc(b1-4)GlcNAc(b1-4)GlcNAc(b1-4)GlcNAc(b1-4)GlcNAc
# Procedure, shortened: as §1
# [28] = biological target: GlcNAc(b1-4)[GlcNAc(b1-6)]GalNAc
# Procedure, shortened: as §1
# [29] = biological target: GlcNAc(b1-6)Gal(b1-4)GlcNAc
# Procedure, shortened: as §1
# [30] = biological target: GlcNAc(b1-6)GalNAc
# Procedure, shortened: as §1
# [31] = biological target: GlcNAc6S(b1-3)Gal(b1-4)GlcNAc
# Procedure, shortened: as §1
# [32] = biological target: Kdn(a2-3)Gal(b1-3)GalNAc
# Procedure, shortened: as §1
# [33] = biological target: Kdn(a2-3)Gal(b1-3)GlcNAc
# Procedure, shortened: as §1
# [34] = biological target: Kdn(a2-3)Gal(b1-4)Glc
# Procedure, shortened: as §1
# [35] = biological target: Kdn(a2-3)Gal(b1-4)GlcNAc
# Procedure, shortened: as §1
# [36] = biological target: Kdn(a2-3)Gal(b1-4)[Fuc(a1-3)]GlcNAc
# Procedure, shortened: as §1
# [37] = biological target: Kdn(a2-6)Gal(b1-4)GlcNAc
# Procedure, shortened: as §1
# [38] = biological target: Man(a1-2)Man(a1-2)Man(a1-3)Man
# Procedure, shortened: as §1
# [39] = biological target: Man(a1-2)Man(a1-2)Man(a1-3)[Man(a1-2)Man(a1-3)[Man(a1-2)Man(a1-6)]Man(a1-6)]Man(b1-4)GlcNAc(b1-4)GlcNAc
# Procedure, shortened: as §1
# [40] = biological target: Man(a1-2)Man(a1-2)Man(a1-3)[Man(a1-2)Man(a1-6)[Man(a1-3)]Man(a1-6)]Man(b1-4)GlcNAc(b1-4)GlcNAc
# Procedure, shortened: as §1
# [41] = biological target: Man(a1-2)Man(a1-2)Man(a1-6)[Man(a1-3)]Man
# Procedure, shortened: as §1
# [42] = biological target: Man(a1-2)Man(a1-3)Man
# Procedure, shortened: as §1
# [43] = biological target: Man(a1-2)Man(a1-3)[Man(a1-2)Man(a1-6)]Man
# Procedure, shortened: as §1
# [44] = biological target: Man(a1-2)Man(a1-3)[Man(a1-2)Man(a1-6)]Man(a1-6)[Man(a1-2)Man(a1-2)Man(a1-3)]Man
# Procedure, shortened: as §1
# [45] = biological target: Man(a1-2)Man(a1-3)[Man(a1-2)Man(a1-6)]Man(a1-6)[Man(a1-2)Man(a1-2)Man(a1-3)]Man(b1-4)GlcNAc(b1-4)GlcNAc
# Procedure, shortened: as §1
binder,measurement,setting,value
B1,glycan array binding signal (z-score),[1],0.325
same,glycan array binding signal (z-score),[2],-0.373
same,glycan array binding signal (z-score),[3],-0.353
same,glycan array binding signal (z-score),[4],-0.275
same,glycan array binding signal (z-score),[5],-0.316
same,glycan array binding signal (z-score),[6],-0.364
same,glycan array binding signal (z-score),[7],-0.272
same,glycan array binding signal (z-score),[8],-0.337
same,glycan array binding signal (z-score),[9],-0.392
same,glycan array binding signal (z-score),[10],-0.206
same,glycan array binding signal (z-score),[11],-0.369
same,glycan array binding signal (z-score),[12],-0.307
same,glycan array binding signal (z-score),[13],-0.348
same,glycan array binding signal (z-score),[14],-0.32
same,glycan array binding signal (z-score),[15],-0.375
same,glycan array binding signal (z-score),[16],-0.392
same,glycan array binding signal (z-score),[17],-0.357
same,glycan array binding signal (z-score),[18],-0.385
same,glycan array binding signal (z-score),[19],-0.292
same,glycan array binding signal (z-score),[20],-0.306
same,glycan array binding signal (z-score),[21],-0.298
same,glycan array binding signal (z-score),[22],1.02
same,glycan array binding signal (z-score),[23],-0.157
same,glycan array binding signal (z-score),[24],-0.359
same,glycan array binding signal (z-score),[25],-0.366
same,glycan array binding signal (z-score),[26],-0.032
same,glycan array binding signal (z-score),[27],-0.325
same,glycan array binding signal (z-score),[28],-0.317
same,glycan array binding signal (z-score),[29],0.708
same,glycan array binding signal (z-score),[30],-0.382
same,glycan array binding signal (z-score),[31],0.486
same,glycan array binding signal (z-score),[32],-0.342
same,glycan array binding signal (z-score),[33],-0.163
same,glycan array binding signal (z-score),[34],-0.281
same,glycan array binding signal (z-score),[35],-0.311
same,glycan array binding signal (z-score),[36],-0.182
same,glycan array binding signal (z-score),[37],-0.005
same,glycan array binding signal (z-score),[38],-0.095
same,glycan array binding signal (z-score),[39],0.014
same,glycan array binding signal (z-score),[40],0.647
same,glycan array binding signal (z-score),[41],-0.268
same,glycan array binding signal (z-score),[42],-0.348
same,glycan array binding signal (z-score),[43],-0.36
same,glycan array binding signal (z-score),[44],-0.304
same,glycan array binding signal (z-score),[45],-0.277
